Positions count from the first letter of the chain named. Names may count otherwise. Read-outs that look alike come from different tables or passages of the source. No constants are given. Whether binding was seen depends on the method and setting. Some entries that bind do so weakly or less than the wild type.
Key:
Assay in all cases: two-hybrid; yeast reporter strain Hf7c (Clontech); growth on SD-WLH with 10 mM 3-amino-1,2,4-triazole (His3 reporter) and beta-galactosidase activity with ONPG
[1] = molecular target: … IN MERISTEM …3 (DMS3) (Arabidopsis thaliana) (UniProt Q94A79)
[2] = molecular target: RNA-DIRECTED DNA …ON1/… IN MERISTEM … 7 (RDM1), wild type (Arabidopsis thaliana) (UniProt Q9LUJ3)
[3] = molecular target: … IN MERISTEM …3 (DMS3) (Arabidopsis thaliana) (UniProt Q94A79); remark: listed apart in the source
[4] = molecular target: rdm1-M50A (RDM1 M50A) (Arabidopsis thaliana) (UniProt Q9LUJ3)
[5] = molecular target: rdm1-d1d2 (RDM1 L128R, I132R) (Arabidopsis thaliana) (UniProt Q9LUJ3)
[6] = molecular target: rdm1-p1p2 (RDM1 Y51A, Y54A) (Arabidopsis thaliana) (UniProt Q9LUJ3)

Chains of the proteins cited; added tags and fusions are not shown.
UniProt Q94A79: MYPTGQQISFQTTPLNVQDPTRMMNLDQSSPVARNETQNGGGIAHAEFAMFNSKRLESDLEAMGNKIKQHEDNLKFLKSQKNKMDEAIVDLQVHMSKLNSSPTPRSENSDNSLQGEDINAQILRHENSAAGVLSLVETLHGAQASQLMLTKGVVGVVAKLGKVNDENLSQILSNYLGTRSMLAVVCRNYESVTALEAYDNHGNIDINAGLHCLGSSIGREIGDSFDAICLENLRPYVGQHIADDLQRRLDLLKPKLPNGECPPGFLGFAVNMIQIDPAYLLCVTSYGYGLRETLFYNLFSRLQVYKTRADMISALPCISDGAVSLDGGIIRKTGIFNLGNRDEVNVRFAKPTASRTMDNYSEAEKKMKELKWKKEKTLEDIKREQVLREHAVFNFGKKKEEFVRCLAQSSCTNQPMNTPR

Molecule: … IN MERISTEM …3 (DMS3) (from UniProt Q94A79 1-420)
- binding [1]: binds

B1: RNA-DIRECTED DNA …ON1/… IN MERISTEM … 7 (RDM1), wild type (protein, UniProt Q9LUJ3 1-163)
chain: MQSSMTMELRPSGDSGSSDVDAEISDGFSPLDTSHRDVADEGSLLRRAEMYQDYMKQVPIPTNRGSLIPFTSWVGLSISMKQLYGQPLHYLTNVLLQRWDQSRFGTDSEEQRLDSIIHPTKAEATIWLVEEIHRLTPSHLHMALLWRSDPMYHSFIDPIFPEK
- binding [2]: binds
- binding [3]: binds

B2: rdm1-M50A (RDM1 M50A) (protein, UniProt Q9LUJ3 1-163)
chain: B1 chain with M50A
- binding [4]: binds
- binding [3]: binds

B3: rdm1-d1d2 (RDM1 L128R, I132R) (protein, UniProt Q9LUJ3 1-163)
chain: B1 chain with L128R, I132R
- binding [5]: no binding
- binding [3]: binds

B4: rdm1-p1p2 (RDM1 Y51A, Y54A) (protein, UniProt Q9LUJ3 1-163)
chain: B1 chain with Y51A, Y54A
- binding [6]: no binding
- binding [3]: no binding
